Screen size: about 340,000 compounds; about 12,000 (3.5%) were called active. The shares of active, inactive and inconclusive entries below differ from those in the screen. Calls follow the shape of the dose curve; as a rule, active = well fitted inhibition curve with a large enough effect; inconclusive = small, poorly fitted or top-dose-only effect, or another doubt; inactive = no such curve, though single readings can be large or run the other way. No potency is given beside an inconclusive call; the fits are too rough.
Assay: qHTS Assay for Inhibitors of Hepatitis C Virus (HCV)
Conditions: Huh7.5.1 HCVcc-Cre (HCVcc is cell-culture hepatitis C virus) infection, luciferase reporter, 44 h; series mostly up to 41.8 µM
Method in brief: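 Compounds are dispensed onto cells plated 4 h earlier at 1,000 per well, with HCVcc-Cre virus (about 0.5 moi) added next. Following 44 h of culture, luminescent signal is measured for 15 sec after 15 min with substrate at room temperature.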
Potency is read from the fitted curve at half-maximal effect; tags tell the direction and shape of the fitted curve.

Compound | Potency
Cc1ccc(C)c(Cn2nnc3c(=O)[nH]c(C4CCN(S(=O)(=O)c5ccc(S(=O)(=O)NC6CC6)cc5)CC4)nc32)c1 | inconclusive [inhibitor, single point]
CC(=O)c1ccc2noc(-c3cccc(C)c3)c2c1 | inactive
Cc1noc(C)c1S(=O)(=O)N(C)C[C@H]1Oc2c(NC(=O)Nc3ccc4c(c3)OCO4)cccc2C(=O)N([C@H](C)CO)C[C@@H]1C | inactive
CC(C)N1CCN(Cc2cc3c(cc2Cl)OCO3)CC1CCO (stereo not drawn) | inconclusive [inhibitor, single point]
O=C(NC(=S)Nc1ccc(Cl)c(C(=O)O)c1)c1ccco1 | inactive
CS(=O)(=O)N1CCN(c2ccc([N+](=O)[O-])c(NCc3ccc(Cl)cc3)c2)CC1 | inconclusive [inhibitor, single point]
O=C(CSc1nc2nn(-c3ccccc3)c(=O)c-2c2n1CCCCC2)Nc1ccc(OC(F)F)cc1 | inconclusive [inhibitor, single point]
O=S(=O)(c1ccccc1)N1CCN(C2CCN(Cc3ccccc3)CC2)CC1 | inconclusive [inhibitor, partial curve, poor fit]
O=C(Nc1ccccn1)c1ccc(COc2ccccc2Cl)o1 | inconclusive [inhibitor, single point]
Cc1cc(C)cc(NC(=O)Nc2ccccc2N2CCCCC2)c1 | inconclusive [inhibitor, partial curve]
CC(O)CNc1nc2c(c(=O)n(C)c(=O)n2C)n1C/C=C/c1ccccc1 (stereo not drawn) | inconclusive [inhibitor, partial curve]
O=C(NCc1ccco1)c1cnn2cccnc12 | inactive
COCCNC(=O)c1cc2ncc(Br)cn2n1 | inactive
CCN(CC)CCN(C(=O)c1ccc2c(c1)OCCO2)c1nc2ccc(C)cc2s1 | inconclusive [inhibitor, partial curve]
Cn1c2ccccc2c2ncn(Cc3ccco3)c(=O)c21 | inconclusive [inhibitor, single point]
CCn1c2ccccc2c2cc(NC(=O)c3ccccc3[N+](=O)[O-])ccc21 | inconclusive [inhibitor, partial curve]
CN1CCC(N(C)c2nc(-c3ccc([N+](=O)[O-])cc3)nc3ccccc23)CC1 | active: 4.47 µM
COc1ccccc1OCc1ccc(C(=O)Nc2ccccc2)cc1 | inconclusive [inhibitor, full curve]
CN(C)N1C(N)=C(C#N)C(c2ccsc2)C2=C1CC(C)(C)CC2=O (stereo not drawn) | inactive
CC1=C(C(=O)c2ccccc2)C(c2cccc([N+](=O)[O-])c2)NC(=S)N1 (stereo not drawn) | inconclusive [inhibitor, partial curve]
CCCn1ncc(CN2CCC(C(=O)Nc3cccc(-c4cccc(F)c4)c3)CC2)c1C | inconclusive [inhibitor, partial curve]
Cc1ccccc1N(CC(=O)NCc1ccccc1)C(=O)CCC(=O)Nc1nccs1 | inconclusive [inhibitor, partial curve]
Cc1cccc(N2C(=O)C(Oc3ccc(Cl)cc3Cl)C2C=O)c1C (stereo not drawn) | inconclusive [inhibitor, single point]

Compound | Potency
O=C(NCC(=O)N1CC=C(c2ccccc2)CC1)c1ccc(OC(F)F)cc1 | inconclusive [inhibitor, single point]
O=C(c1cc2sccc2n1Cc1ccccc1)N1CCCc2ccccc21 | inconclusive [inhibitor, single point]
O=C(Nc1cccc(S(=O)(=O)N2CCOCC2)c1)c1cc2ccccc2o1 | inconclusive [inhibitor, single point]
CCC(C(=O)NC(C)CCc1ccccc1)n1nc(C)n2c(cc3occc32)c1=O (stereo not drawn) | inconclusive [inhibitor, partial curve]
c1ccc2nc3c(cc2c1)CCCCCC3 | inactive
COC(=O)c1ccc2c(c1)C(C)(C)C(/C=C/c1ccc(OC)c(OC)c1OC)=[N+]2C | active: 10 µM
COc1cc2c(cc1OC)C1=NC(=O)CN1C(SCc1ccccc1)=N2 | inconclusive [inhibitor, single point]
COc1cc(NC(=O)c2cccs2)c(OC)cc1NC(=O)Cc1ccccc1 | active: 35.5 µM
COc1ccc(OC)c(CN2CCN(C(=O)c3cc(S(=O)(=O)Nc4ccccc4OC)ccc3C)CC2)c1 | active: 14.1 µM
CN(C)CCCN(C(=O)CCOc1ccccc1)c1nc2ccc(F)cc2s1 | inconclusive [inhibitor, single point]
O=C(Nc1ccc(-c2nc3ccccc3o2)cc1)c1cccnc1 | inconclusive [inhibitor, single point]
C=CCn1c(SCC(=O)Nc2sccc2C(N)=O)nc2ccc(Cl)cc2c1=O | active: 7.94 µM
COc1ccccc1-c1oc2ccccc2c1-c1ccccc1OC | inactive
CC(C)Cn1c(SCc2nc3ccccc3c(=O)[nH]2)nc2ccccc2c1=O | inactive
O=C(c1ccco1)c1cn(Cc2ccccc2Cl)c2ccccc12 | inconclusive [inhibitor, partial curve]
COc1ccc2nc(NC(=O)Cc3ccc(OC)c(S(=O)(=O)N4CCOCC4)c3)sc2c1 | inconclusive [inhibitor, partial curve]
CCN(CC)CCCNc1nc2ccccc2c2[nH]c3ccc(OC)cc3c12 | inconclusive [inhibitor, full curve]
CN(Cc1ccno1)Cc1cn(Cc2ccccc2)nc1-c1ccc2c(c1)OCO2 | inconclusive [inhibitor, partial curve]
COc1ccc(/C=C/C(=O)CC(O)(c2ccccc2)C(F)(F)F)cc1 (stereo not drawn) | inactive
CCc1noc(C)c1C(=O)Oc1ccc(N(C)S(=O)(=O)c2ccc(C)cc2)cc1 | inconclusive [inhibitor, single point]
Cn1c(=O)n(C)c2cc(/C=N/N=C3/NC(=O)C(CC(=O)O)S3)ccc21 (stereo not drawn) | inactive
Cc1cccc(CSCCNC(=O)Nc2ccccc2)c1 | inactive
COCCOCC(=O)Nc1ccc(S(=O)(=O)Nc2cc(C)nc(C)n2)cc1 | inconclusive [inhibitor, single point]

Compound | Potency
CCCc1cc(C(=O)N2CCCC(Cc3ccccc3C)(C(=O)OCC)C2)no1 (stereo not drawn) | inconclusive [inhibitor, single point]
CCc1ccc(CN(Cc2cccnc2)C(=O)/C=C/c2ccc(OC)cc2)cc1 | inconclusive [inhibitor, single point]
CCOC(=O)c1c(NC(=O)COC(=O)c2cnccn2)sc(C)c1C | inconclusive [inhibitor, partial curve]
COc1cc(-c2nnc3sc(Cc4ccc(Cl)cc4)nn23)cc(OC)c1OC | inconclusive [inhibitor, partial curve, poor fit]
CCc1ccccc1NC(=O)CCc1c(C)nc(SC)nc1C | inconclusive [inhibitor, partial curve, poor fit]
COCCCNC(=O)COc1ccc(-c2nccc(-c3ccccn3)n2)cc1 | inconclusive [inhibitor, partial curve]
O=C(c1cc2ccccc2oc1=O)N1CCN(Cc2ccc3c(c2)OCO3)CC1 | inconclusive [inhibitor, single point]
CSCCC(NC(=O)C12CC3CC(CC(C3)C1)C2)C(=O)OCC(=O)c1ccc(C)cc1 (stereo not drawn) | inactive
O=C(NCc1ccco1)c1ccc(-c2ccc(Cl)cc2)o1 | inconclusive [inhibitor, partial curve]
COc1ccc(/C=N/NC(=O)CSc2nnc(C)n2-c2ccccc2)c(OC)c1OC | inconclusive [inhibitor, partial curve]
COc1ccc(OC)c(C2SCCN2S(=O)(=O)c2cccc(C(F)(F)F)c2)c1 (stereo not drawn) | inconclusive [inhibitor, single point]
CCc1ccccc1NC(=S)N1CCN(c2cccc(OC)c2)CC1 | inactive
COc1cccc(-n2nnc3c(=O)n(Cc4cccc(C)c4)cnc32)c1 | inconclusive [inhibitor, partial curve]
COc1nc(N/N=C/c2cc3c(cc2Br)OCO3)nc(N2CCOCC2)n1 | inconclusive [inhibitor, full curve]
CCOC(=O)[C@@H]1[C@H]2COc3cc(OC)ccc3[C@@H]2N2C(=O)N(c3ccc(Cl)cc3)C(=O)[C@]12C | inactive
COCCNC(=O)/C(C#N)=C/c1c(N2CCN(c3ccc(OC)cc3)CC2)nc2c(C)cccn2c1=O | inactive
O=C(C1=C[C@H](c2csc3ccccc23)C[C@H](OCc2ccc(CO)cc2)O1)N1CCN(Cc2ccccc2)CC1 | inconclusive [inhibitor, single point]
O=C(CN1CCN(S(=O)(=O)c2ccccc2)CC1)Nc1ccccc1Cl | inconclusive [inhibitor, single point]
Cc1ccc(-n2nnnc2SCc2nnc(-c3ccccc3Br)o2)c(C)c1 | inconclusive [inhibitor, partial curve]
COC(=O)CN(C#N)c1nc(NCc2ccccc2)nc(OC)n1 | inactive
COc1ccc2[nH]c3c(c2c1)CCNC3c1ccc([N+](=O)[O-])o1 (stereo not drawn) | inactive
O=[N+]([O-])c1ccc(O)c(C2=NNC(c3ccccc3F)C2)c1 (stereo not drawn) | inconclusive [inhibitor, single point]
